Several values for one entry are separate records, joined by “and”; a condition that tells them apart may be missing. Equal values may be shown once. Screen size: about 16,000 compounds; about 40 (0.2%) were called active. Inconclusive results (about 1%) are left out. Calls come from the whole dose curve; as a rule, active = well fitted activation curve with a large enough effect; inconclusive = small, poorly fitted or top-dose-only effect, or another doubt; inactive = no such curve, though single readings can be large or run the other way. Some of the results follow.
What follows are compounds tested against Rap guanine nucleotide exchange factor 4 (Homo sapiens) (UniProt Q8WZA2) (assay: Validation qHTS for agonist of cAMP-regulated guanine nucleotide exchange factor 4 (EPAC2)). Conditions: EPAC2 Rap1B BODIPY-GDP exchange, fluorescence; activation: active compounds read high.
Sequence of UniProt Q8WZA2 (Q8WZA2 whole entry, looked up): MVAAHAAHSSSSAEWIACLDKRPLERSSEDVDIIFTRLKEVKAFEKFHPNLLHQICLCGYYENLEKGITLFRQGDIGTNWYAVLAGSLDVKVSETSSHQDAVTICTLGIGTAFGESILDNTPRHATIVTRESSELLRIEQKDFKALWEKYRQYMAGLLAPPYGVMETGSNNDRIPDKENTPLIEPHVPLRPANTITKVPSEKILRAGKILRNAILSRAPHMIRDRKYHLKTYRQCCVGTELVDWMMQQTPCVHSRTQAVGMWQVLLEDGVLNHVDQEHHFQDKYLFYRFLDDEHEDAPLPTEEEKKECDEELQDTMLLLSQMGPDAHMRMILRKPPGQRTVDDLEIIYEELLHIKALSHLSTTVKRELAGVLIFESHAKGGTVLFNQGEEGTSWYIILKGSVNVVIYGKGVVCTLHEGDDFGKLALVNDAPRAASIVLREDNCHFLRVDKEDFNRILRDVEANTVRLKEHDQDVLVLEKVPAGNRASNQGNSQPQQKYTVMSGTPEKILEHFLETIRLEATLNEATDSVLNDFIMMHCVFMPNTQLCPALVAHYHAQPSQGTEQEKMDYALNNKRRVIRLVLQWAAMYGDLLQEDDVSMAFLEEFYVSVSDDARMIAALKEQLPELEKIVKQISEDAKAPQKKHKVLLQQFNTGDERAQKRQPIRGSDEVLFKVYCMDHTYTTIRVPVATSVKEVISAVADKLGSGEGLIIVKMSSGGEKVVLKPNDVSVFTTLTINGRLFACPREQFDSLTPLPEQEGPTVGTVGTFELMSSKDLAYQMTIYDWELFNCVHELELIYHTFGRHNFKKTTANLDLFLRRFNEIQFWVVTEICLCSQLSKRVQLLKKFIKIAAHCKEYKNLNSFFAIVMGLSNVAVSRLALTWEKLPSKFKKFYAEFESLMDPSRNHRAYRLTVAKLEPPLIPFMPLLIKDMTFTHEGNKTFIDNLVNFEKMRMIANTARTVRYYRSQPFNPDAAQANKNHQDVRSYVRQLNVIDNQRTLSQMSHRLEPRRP
Summary of the method: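 Signal normalized against 6.5 mM cAMP as agonist control. Mix of EPAC2 (100 nM), RAP1B-BODIPY-GDP (250 nM) and GDP (50 uM) was read kinetically at 480/540 nm, every 5 min over 30 min, after 5 min room-temperature incubation with compound.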
% is set by controls: 0 for no effect and ±100 for the full control effect.
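Note: exchange makes BODIPY-GDP fluorescence drop when released from Rap1B; series mostly up to about 150 µM.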

activation, inactive:
CCN1CCCC1CNC(=O)c1cnn(-c2ncc3c(n2)-c2ccc(OC)cc2CC3)c1C1CC1 (stereo not drawn) -9.04%
CN(Cc1ccco1)c1ncnc2ccc(-c3cccnc3)cc12 -20.9%
CC(=O)c1ccccc1-c1ccc2c(c1)CC(CNC(=O)Cc1c[nH]c3ccccc13)O2 (stereo not drawn) 6.42%
Nc1ncnc2nc(-c3ccc(N4CCOCC4)nc3)cc(-c3cccc(Br)c3)c12 -78.7%
C[C@]12C=CC(=O)C=C1CC[C@@H]1[C@@H]2C(=O)C[C@@]2(C)[C@H]1CC[C@]2(O)C(=O)CO 3.22%
O=C1CCN(Cc2ccc(Br)cc2)CCN1[C@H](CO)c1ccccc1 -21.6%
C=CCn1c(=O)n([C@@H]2O[C@H](CO)[C@@H](O)[C@H]2O)c2nc(N)[nH]c(=O)c21 -24.1%
CN(C)C(=O)c1ccc(-c2nccc(NCc3ccccc3)n2)cc1 -0.0553%
C[C@]12C=CC(=O)C=C1CC[C@@H]1C2=CC[C@]2(C)[C@@H](C(=O)CN3CCN(c4cc(N5CCCC5)nc(N5CCCC5)n4)CC3)CC[C@@H]12 -5.05%
CCOC(=O)CCC(=O)O[C@H]1[C@H](O[C@@H]2[C@@H](C)[C@H](O[C@H]3C[C@@](C)(OC)[C@@H](O)[C@H](C)O3)[C@@H](C)C(=O)O[C@H](CC)[C@@](C)(O)[C@H](O)[C@@H](C)C(=O)[C@H](C)C[C@@]2(C)O)O[C@H](C)C[C@@H]1N(C)C -12.4%
CCCCCCCCCCCCC/C=C\[C@@H](O)[C@@H](N)CO -12.9%
Nc1ccc(C(=O)Nc2ccccc2N)cc1 0.0704%
C[C@](N)(C(=O)O)c1ccc(-c2nn[nH]n2)cc1 -5.28%
CCCCCCCCCCCCCCCCCCN(CCCCCCCCCCCCCCCCCC)c1ccc(/C=C/c2ccc(C=O)cc2)cc1 -8.08%
Cc1ccccc1-n1cc(CNC(=O)CN2Cc3ccccc3OC(C)C2)cn1 (stereo not drawn) -1.03%
COc1ccc2[nH]cc(CCNc3ncncc3-c3ccoc3)c2c1 0.9%
COc1cccc(C2(CC(=O)N3CCC(c4nc5ccccc5o4)CC3)CC(=O)N(C)C2=O)c1 (stereo not drawn) -12.1%
CCCS(=O)(=O)NCc1c(C)ncc2c1CCN(C(=O)c1ccc3[nH]c4c(c3c1)CCCC4)C2 -6.12%
C[n+]1cccc(C(=O)[O-])c1 -9.71%
CCCCCCCCCCCCCCC[C@@H](O)[C@@H](N)CO -13.3% and -10.2%
COc1cc(C)c(/C=C/C(C)=C/C=C/C(C)=C/C(=O)O)c(C)c1C -4.79% and -4.32%
CCOC(=O)C[C@H]1c2ccc(C(F)(F)F)cc2S(=O)(=O)N1C(C)(C)C -31.8%
CCCCCCCCCCCCCCCCCC(=O)OCC(O)CO (stereo not drawn) 6.63%
CCNc1ncc2nc(-c3cn(C)c4ccccc34)c(=O)n(-c3ccccc3)c2n1 14.5%
COc1cc(CN2CCCC(n3cc(C(=O)N4CCCCC4)nn3)C2)cc(OC)c1OC (stereo not drawn) -2.07%
c1ccc2c(CCC3CCNCC3)c[nH]c2c1 -7.1%
C=CC(C1=CC(=O)C(OC)=C(OC)C1=O)c1ccccc1 (stereo not drawn) -12.6%
COc1ccc(C(=O)C[n+]2cccc3cccc(O)c32)cc1 -13.2%
Cc1ccccc1C1(CC(=O)N2CC3(C)CC2CC(C)(C)C3)CC(=O)N(Cc2cccnc2)C1=O (stereo not drawn) -11.8%
OC[C@H]1O[C@@H](OC[C@H]2O[C@@H](O)[C@H](O)[C@@H](O)[C@@H]2O)[C@H](O)[C@@H](O)[C@@H]1O -1.95%
Cc1cccc(CNc2ccnc(-c3ccc(N(C)C)cc3)n2)c1 -11.7%
CCOC(=O)C[C@H]1c2ccccc2S(=O)(=O)N1c1ccccc1 -24.7%
CN(C)c1ncc2nc(-c3cccc(C#N)c3)c(=O)n(CCC#N)c2n1 -0.938%
O=C(O)[C@H]1C(=CCO)O[C@H]2CC(=O)N12 -12.9%
C[C@]12CC3CC(N)(C1)C[C@@](C)(C3)C2 3.85%
C[C@@H]1CN(Cc2ccc3c(c2)CN(Cc2ccc(Oc4ncccn4)cc2)CCO3)C[C@H](C)O1 -7.71%
COC1=CC(=O)CC(C)C12Oc1c(Cl)c(OC)cc(OC)c1C2=O (stereo not drawn) 2.44%
COc1ccc(-c2noc(CC(=O)O)c2-c2ccc(OC)cc2)cc1 -10.4%
COc1cc2c(cc1OC)C(C(=O)c1ccc(OC)c(OC)c1O)=NCC2 -11.6%
CN(C)CCC=C1c2ccccc2C=Cc2ccccc21 -11.7% and -9.8% and -5.9%
NC(N)=N/N=C/c1c(Cl)cccc1Cl -12.2% and -6.28%
Clc1ccc[n+](CCCCC[n+]2cccc(Cl)c2)c1 -27.9%
NS(=O)(=O)c1cc2c(cc1Cl)NCNS2(=O)=O -10.7% and -15.7%
O=C1C(=O)N(Cc2ccc(Cl)c(Cl)c2)c2ccccc21 14.4%
CC1=C(/C=C/C(C)=C/C=C/C(C)=C/C=C/C=C(C)/C=C/C=C(C)/C=C/C(=O)[C@]2(C)CC(O)CC2(C)C)C(C)(C)CC(O)C1 (stereo partly drawn) -2.2%
CS(=O)(=O)N1CCC2(CCCN(C(=O)Nc3cccc(C#N)c3)C2)CC1 -28%
COc1cc(/C=C/C(=O)O)ccc1O -2.06%
Cc1cnc(SCc2ccccn2)nc1C1CCCN(C(=O)c2ccc3c(c2)OCCO3)C1 (stereo not drawn) 5.18%
C[N+]1(C)CCC(=C(c2ccccc2)c2ccccc2)CC1 -2.94% and -10.3%
CC(C)CC(NC(=O)OCC1c2ccccc2-c2ccccc21)C(=O)O (stereo not drawn) -3.94%
COc1cccc(Nc2ncc3nc(-c4ccc(F)cc4)c(=O)n(C[C@H]4CCCO4)c3n2)c1 -12.1%
Nc1ccc(C(=O)Oc2ccccc2)c(O)c1 -6.09%
O=c1c(-c2ccc(F)cc2)nc2cnc(Oc3cccc(Cl)c3)nc2n1C1CC1 0.999%
CCNc1ncc2nc(-c3ccc(Cl)cc3)c(=O)n(C)c2n1 -9.79%
Cc1ccccc1C1(CC(=O)N2CCCCC2C)CC(=O)N(Cc2cccnc2)C1=O (stereo not drawn) -8.13%
COc1cc(CN2CCCC(n3cc(C(=O)N4CCCC4)nn3)C2)cc(OC)c1 (stereo not drawn) -11.8%
O=C(Oc1ccccc1)N1CCC2(CCCN(c3ccncc3)C2)CC1 -10%
Cc1ccc(-c2ccnc(-n3ncc(C(=O)N(C)Cc4cccc5ncccc45)c3C3CC3)n2)o1 2.22%
Cc1noc(C)c1CCC(=O)N1CCOc2ccc(CN3CCN(c4ccccn4)CC3)cc2C1 2.37%
COC(=O)c1cc(CNC(=O)c2cccc(N(C)C)c2)cc(NC(=O)c2ccccc2Cl)c1 -22%
O=c1[nH]c(=O)n([C@H]2C[C@H](O)[C@@H](CO)O2)cc1F 4.7% and 5.76%
COc1ccccc1CN1CC[C@@]2(CCCN(C(=O)c3cccc(F)c3)C2)C1 -1.9%
Fc1ccc(Nc2ccnc(-c3ccoc3)n2)cc1 -20.5%
CCCCCCOC(=O)c1cccnc1 -12.8%
COc1ccc(-c2cn(Cc3ccc(C(=O)c4ccccc4)cc3)nn2)cc1 -10.2%
OC(CN1CCCCC1)c1cc(-c2ccccc2)on1 (stereo not drawn) 8.32%
NC(=O)c1ncn([C@@H]2O[C@H](CO)[C@@H](O)[C@H]2O)c1N -9.43%
C=C1CCC2C(CC2(C)C)C(=C)CC/C1=N/O (stereo not drawn) -9.33%
CNc1nc(-c2ccoc2)nc2ccccc12 -5.87%
COc1cc2c(cc1OC)[C@@H](c1ccccc1)CN(C)CC2 -4.15%
Cc1ccccc1-c1nc(N2CCNCC2)c2ccccc2n1 1.67%
Cc1cc(C)cc(CN2CCc3nnc(C(NS(C)(=O)=O)C(C)C)n3CC2)c1 (stereo not drawn) -22.2%
COC(=O)[C@@H]1CCCN1C(=O)c1c(OC)cc(=O)n2c1CCN(Cc1ccc3cccnc3c1)CC2 -13.9%
NCCc1ccn[nH]1 -15.3%
COc1ccc(/C=C/C(=O)c2cccs2)cc1OC -0.0267%
C[N+]12CCC(CC1)C(OC(=O)C(O)(c1ccccc1)c1ccccc1)C2 (stereo not drawn) -7.78% and -13.7%
CN(C)C(=O)c1ccc(-c2cncnc2N2CCNCC2)cc1 -0.757%
COC(=O)[C@@H]1CCCN1Cc1ccc2c(c1)CN(Cc1ccc(OC)c(C)c1)CCO2 -7.08%
Nc1ncnc2c1nc(Br)n2C1OC(CO)C(O)C1O (stereo not drawn) -0.2%
O=C(c1cc(C(F)(F)F)cc(C(F)(F)F)c1)N1CCC2(CC1)CN(c1ccncc1)C2 -10.3%
Nc1ncnc2c1ncn2[C@@H]1O[C@H](COP(=O)(O)O)[C@@H](O)[C@H]1O 9.28%
O=C1CCN(Cc2ccccc2)CCN1[C@H](COc1ccccc1)Cc1ccccc1 -36.9%
CCC(=O)O[C@H]1[C@H](O[C@@H]2[C@@H](C)[C@H](O[C@H]3C[C@@](C)(OC)[C@@H](O)[C@H](C)O3)[C@@H](C)C(=O)O[C@H](CC)[C@@](C)(O)[C@H](O)[C@@H](C)C(=O)[C@H](C)C[C@@]2(C)O)O[C@H](C)C[C@@H]1N(C)C -57.1%

— PubChem BioAssay AID1645887 (National Center for Advancing Translational Sciences (NCATS), 2021)
